Assay results reported in PubChem BioAssay (Tox21).
Values joined by “and” are separate entries in the source; they are usually repeats but may differ in a detail not shown here. Equal values may be shown once. The inconclusive results got no clear call from the source; some entries with a clear call stand among them for comparison. Where the call is inconclusive, the potency comes from a doubtful curve fit. More than one record can exist for a structure, and the calls need not agree. Active and inactive are the calls of the source. Unless noted, calls follow the shape of the dose curve; as a rule, active = well fitted curve in the direction sought with a large enough effect in the repeat runs; inconclusive = weak or mixed curves; inactive = no such curve, though single readings can be large; an effect the other way counts as inactive or inconclusive.

Assays:
[1] = target: Peroxisome proliferator-activated receptor gamma (Homo sapiens) (UniProt P37231); assay: qHTS assay to identify small molecule antagonists of the peroxisome proliferator-activated receptor gamma (PPARg) signaling pathway (AID 743191; calls by dose curve; also: nearly all actives have a fitted effect of over 30% in size; as to ratio activity, negative = inhibition: % is scaled to controls: 0 for no effect and ±100 for the full control effect); settings: HEK293H PPARg-UAS-bla, beta-lactamase ratio, antagonist, 17 h; ratio activity, negative = inhibition: at 62.6 µM (top of the series) unless noted
How it was run: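 GeneBLAzer PPARg UAS-bla HEK293H cells, 5 h post-plating, exposed to compounds 17 h at 37C. LiveBLAzer B/G FRET substrate added for 1 h at room temperature; beta-lactamase reporter read by fluorescence intensity.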

[2] = qHTS assay to identify small molecule antagonists of the peroxisome proliferator-activated receptor gamma (PPARg) signaling pathway - cell viability counter screen (AID 743194); settings: PPARg-bla HEK293H viability, CellTiter-Glo luminescence, 17 h, co-treated with 50 nM rosiglitazone; activity change, negative = cytotoxicity: at 62.6 µM (top of the series) unless noted; also: nearly all actives have a fitted effect of over 55% in size
How it was run: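 Cytotoxicity counter screen in PPARg-bla HEK293H cells, same wells as reporter assay. Compounds plus 50 nM rosiglitazone (final) for 17 h at 37 C, then viability read by CellTiter-Glo luminescence.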

[3] = qHTS assay for small molecule agonists of the antioxidant response element (ARE) signaling pathway (AID 743202; active = well fitted activation curve with a large enough effect in the signal ratio in the repeat runs, not every such curve was filed as active; inconclusive = weak or mixed curves, or effect the other way; inactive = no such curve, though single readings can be large or run the other way; the % refers to the signal ratio; as to activation: % is scaled to controls: 0 for no effect and ±100 for the full control effect); settings: HepG2 ARE-bla reporter, beta-lactamase FRET, 16 h; activation: at 73.3 µM (top of the series) unless noted
How it was run: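 HepG2 ARE-bla cells; 16 h treatment at 37 C; FRET-based beta-lactamase fluorescence read after 2 h substrate incubation at room temperature.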

[4] = qHTS assay for small molecule agonists of the antioxidant response element (ARE) signaling pathway - cell viability counter screen (AID 743203; calls by dose curve; also: nearly all actives have a fitted effect of over 55% in size); settings: ARE-bla HepG2 viability, CellTiter-Glo luminescence, 16 h; viability change, negative = cytotoxic: at 73.3 µM (top of the series)
How it was run: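 Cytotoxicity was tested in parallel with the ARE reporter screen. ARE-bla HepG2 cells were exposed to compounds for 16 hrs, and viability was taken from CellTiter-Glo luminescence.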

[5] = qHTS assay for small molecule activators of the heat shock response signaling pathway (AID 743210; active = well fitted activation curve with a large enough effect in the signal ratio in the repeat runs, with a control signal flat, not every such curve was filed as active; inconclusive = weak or mixed curves; the % refers to the signal ratio); settings: HeLa HSE-bla reporter, beta-lactamase ratio, 5 h; activation: at 62.6 µM (top of the series)
How it was run: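 Following overnight attachment, HSE-bla HeLa cells received test compounds for 5 h at 37 C; beta-lactamase activity was then detected via FRET substrate fluorescence.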

[6] = target: Peroxisome proliferator-activated receptor delta (Homo sapiens) (UniProt Q03181); assay: qHTS assay to identify small molecule agonists of the peroxisome proliferator-activated receptor delta (PPARd) signaling pathway (AID 743212; calls by dose curve; as to activation: % is scaled to controls: 0 for no effect and ±100 for the full control effect); settings: HEK293H PPARd-UAS-bla, beta-lactamase FRET ratio, 17 h; activation: at 62.6 µM (top of the series) unless noted
How it was run: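 Tox21 library screened in GeneBLAzer PPARd UAS-bla HEK293H cells. After compound treatment at 37 C, a FRET-based beta-lactamase substrate was applied for 2 h and fluorescence recorded.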

[7] = qHTS assay to identify small molecule antagonists of the peroxisome proliferator-activated receptor delta (PPARd) signaling pathway - cell viability counter screen (AID 743213); settings: PPARd-bla HEK293H viability, CellTiter-Glo luminescence, 17 h; viability change, negative = cytotoxic: at 62 µM (top of the series) unless noted; also: nearly all actives have a fitted effect of over 50% in size
How it was run: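 Luminescence from CellTiter-Glo, added after the bla read and incubated 30 min at room temperature, gives viability of HEK293H PPARd-bla cells exposed to compounds for 17 h at 37 C with 300 nM L165041.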

[8] = target: Peroxisome proliferator-activated receptor delta (Homo sapiens) (UniProt Q03181); assay: qHTS assay to identify small molecule antagonists of the peroxisome proliferator-activated receptor delta (PPARd) signaling pathway (AID 743215; active = well fitted inhibition curve with a large enough effect in the signal ratio in the repeat runs, not every such curve was filed as active; inconclusive = weak or mixed curves, or effect the other way; inactive = no such curve, though single readings can be large or run the other way; the % refers to the signal ratio;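 also: cells stimulated with agonist L165041 at 300 nM final during compound exposure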; as to ratio activity, negative = inhibition: % is scaled to controls: 0 for no effect and ±100 for the full control effect); settings: HEK293H PPARd-UAS-bla, beta-lactamase FRET ratio, antagonist, 17 h; ratio activity, negative = inhibition: at 62 µM (top of the series) unless noted
How it was run: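 Cells: HEK293H with a UAS-driven beta-lactamase reporter responsive to PPARd. Compounds were co-added with L165041 (300 nM, final) and incubated 17 h at 37 C before a 2 h room-temperature FRET substrate step and fluorescence reading.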

[9] = target: Bile acid receptor (Homo sapiens) (UniProt Q96RI1); assay: qHTS assay to identify small molecule antagonists of the farnesoid-X-receptor (FXR) signaling pathway (AID 743217; active = well fitted inhibition curve with a large enough effect in the signal ratio in the repeat runs, not every such curve was filed as active; inconclusive = weak or mixed curves, or effect the other way; inactive = no such curve, though single readings can be large or run the other way; the % refers to the signal ratio); settings: HEK293T FXR-UAS-bla, beta-lactamase ratio, CDCA-stimulated, 16 h; activity change, negative = inhibition: at 62.6 µM (top of the series) unless noted
How it was run: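 Cells carrying a UAS-driven beta-lactamase reporter (GeneBLAzer FXR-UAS-bla HEK 293T) were plated and rested 5 h at 37 °C. Compounds in DMSO were added alongside chenodeoxycholic acid agonist at 50 uM final and left 16 h at 37 °C before FRET substrate readout.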

[10] = qHTS assay to identify small molecule agonists of the farnesoid-X-receptor (FXR) signaling pathway - cell viability counter screen (AID 743218); settings: FXR-bla HEK293T viability, CellTiter-Glo luminescence, 16 h; viability change, negative = cytotoxic: at 62.6 µM (top of the series) unless noted; also: nearly all actives have a fitted effect of over 45% in size
How it was run: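 Cells were seeded, left 5 h at 37 C and 5% CO2, then dosed with compound in DMSO for 16 h. After the beta-lactamase FRET read, CellTiter-Glo was added and luminescence measured 30 min later.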

[11] = target: Bile acid receptor (Homo sapiens) (UniProt Q96RI1); assay: qHTS assay to identify small molecule agonists of the farnesoid-X-receptor (FXR) signaling pathway (AID 743220; active = well fitted activation curve with a large enough effect in the signal ratio in the repeat runs, not every such curve was filed as active; inconclusive = weak or mixed curves, or effect the other way; the % refers to the signal ratio); settings: HEK293T FXR-UAS-bla, beta-lactamase FRET ratio, 16 h; activation: at 62.6 µM (top of the series) unless noted
How it was run: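 FXR-UAS-bla HEK 293T cells carrying a UAS-driven beta-lactamase reporter were plated for 5 h at 37C/5% CO2, then exposed to DMSO-dissolved Tox21 10K compounds for 16 h at 37C. A LiveBLAzer B/G FRET substrate was loaded for 2 h at room temperature before fluorescence reading.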

[12] = qHTS assay to identify small molecule antagonists of the farnesoid-X-receptor (FXR) signaling pathway - cell viability counter screen (AID 743221; active = well fitted cell-killing curve with a large enough effect in the repeat runs, not every such curve was filed as active; inconclusive = weak or mixed curves, or effect the other way; inactive = no such curve, though single readings can be large or run the other way; also: nearly all actives have a fitted effect of over 50% in size); settings: FXR-bla HEK293T viability, CellTiter-Glo luminescence, 16 h; activity change, negative = cytotoxicity: at 62.6 µM (top of the series)
How it was run: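 Multiplexed counter screen: viability of FXR-bla HEK 293T cells under agonist stimulation by chenodeoxycholic acid (50 uM, final) and test compound for 16 h at 37 C, measured by CellTiter-Glo luminescence in the reporter wells.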

[13] = target: Vitamin D3 receptor (Homo sapiens) (UniProt P11473); assay: qHTS assay to identify small molecule agonists of the vitamin D receptor (VDR) signaling pathway (AID 743222; calls by dose curve); settings: HEK293T VDR-UAS-bla, beta-lactamase FRET ratio, 16 h; activation: at 63.5 µM (top of the series) unless noted
How it was run: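 Cells carrying a VDR-driven beta-lactamase reporter are seeded at 2,000 per well and rested 4 h. Compounds in DMSO are added for 16 h at 37C, and FRET substrate fluorescence is measured after 2 h at room temperature.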

[14] = target: Vitamin D3 receptor (Homo sapiens) (UniProt P11473); assay: qHTS assay to identify small molecule antagonists of the vitamin D receptor (VDR) signaling pathway (AID 743223; active = well fitted inhibition curve with a large enough effect in the signal ratio in the repeat runs, not every such curve was filed as active; inconclusive = weak or mixed curves, or effect the other way; inactive = no such curve, though single readings can be large or run the other way; the % refers to the signal ratio); settings: VDR-UAS-bla HEK293T, beta-lactamase FRET ratio, 16 h; activity change, negative = inhibition: at 61 µM (top of the series) unless noted
How it was run: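 Cells carrying a VDR-driven beta-lactamase reporter (VDR-bla) were co-treated with compound and 3 nM final 1alpha,25-dihydroxyvitamin D3 for 16 h at 37C; reporter activity was measured as FRET substrate fluorescence after 2 h at room temperature.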

[15] = qHTS assay to identify small molecule agonists of the vitamin D receptor (VDR) signaling pathway - cell viability counter screen (AID 743224); settings: VDR-bla HEK293T viability, CellTiter-Glo luminescence, 16 h; activity change, negative = cytotoxicity: at 62.6 µM (top of the series) unless noted; also: nearly all actives have a fitted effect of over 50% in size
How it was run: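 Cells: VDR-bla, 2,000/well, settled 4 h. Treatment: compounds in DMSO, 16 h, 37C/5% CO2. Readout: CellTiter-Glo luminescence after 30 min RT.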

[16] = qHTS assay to identify small molecule antagonists of the vitamin D receptor (VDR) signaling pathway - cell viability counter screen (AID 743225); settings: VDR-bla HEK293T viability, CellTiter-Glo luminescence, 16 h; viability change, negative = cytotoxic: at 61 µM (top of the series) unless noted; also: nearly all actives have a fitted effect of over 50% in size
How it was run: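 HEK293T VDR-bla; cpd + 1a,25-(OH)2D3 3 nM final, 16 h 37C/5% CO2; B/G FRET substrate 2 h RT; then CellTiter-Glo 30 min RT, luminescence.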

[17] = qHTS assay to identify small molecule agonists of the peroxisome proliferator-activated receptor delta (PPARd) signaling pathway - cell viability counter screen (AID 743211); settings: PPARd-bla HEK293H viability, CellTiter-Glo luminescence, 17 h; activity change, negative = cytotoxicity: at 62.6 µM (top of the series); also: nearly all actives have a fitted effect of over 55% in size
How it was run: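 Counter screen for cytotoxicity run in parallel with the PPARd reporter screen. Beta-lactamase reporter HEK293H cells exposed to compounds 17 h; ATP-based CellTiter-Glo luminescence quantified viability.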

[18] = qHTS assay for small molecule activators of the heat shock response signaling pathway - cell viability counter screen (AID 743209); settings: HSE-bla HeLa viability, CellTiter-Glo luminescence, 5 h; activity change, negative = cytotoxicity: at 62.6 µM (top of the series) unless noted; also: nearly all actives have a fitted effect of over 50% in size
How it was run: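 Cytotoxicity counter screen run in parallel with the HSE beta-lactamase reporter, using the same wells. HeLa HSE-bla cells received compound for 5 h at 37 C; ATP-based CellTiter-Glo luminescence was measured after 30 min at room temperature.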
Potency is read from the fitted curve at half-maximal effect; tags tell the direction and shape of the fitted curve or compound fluorescence and quenching.

Sequence of UniProt P11473 (P11473 whole entry, looked up): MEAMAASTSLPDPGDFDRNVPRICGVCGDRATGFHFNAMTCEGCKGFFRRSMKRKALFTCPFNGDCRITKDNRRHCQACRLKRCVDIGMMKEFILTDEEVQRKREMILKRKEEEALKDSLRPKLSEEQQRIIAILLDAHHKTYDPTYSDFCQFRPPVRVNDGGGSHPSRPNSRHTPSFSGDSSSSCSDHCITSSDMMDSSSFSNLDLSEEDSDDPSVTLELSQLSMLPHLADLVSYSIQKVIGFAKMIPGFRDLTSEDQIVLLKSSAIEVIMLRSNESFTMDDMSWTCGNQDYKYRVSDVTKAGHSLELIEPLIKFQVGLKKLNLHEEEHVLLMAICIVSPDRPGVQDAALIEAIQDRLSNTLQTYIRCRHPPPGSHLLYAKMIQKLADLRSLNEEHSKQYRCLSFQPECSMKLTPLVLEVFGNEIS
Sequence of UniProt Q03181 (Q03181 whole entry, looked up): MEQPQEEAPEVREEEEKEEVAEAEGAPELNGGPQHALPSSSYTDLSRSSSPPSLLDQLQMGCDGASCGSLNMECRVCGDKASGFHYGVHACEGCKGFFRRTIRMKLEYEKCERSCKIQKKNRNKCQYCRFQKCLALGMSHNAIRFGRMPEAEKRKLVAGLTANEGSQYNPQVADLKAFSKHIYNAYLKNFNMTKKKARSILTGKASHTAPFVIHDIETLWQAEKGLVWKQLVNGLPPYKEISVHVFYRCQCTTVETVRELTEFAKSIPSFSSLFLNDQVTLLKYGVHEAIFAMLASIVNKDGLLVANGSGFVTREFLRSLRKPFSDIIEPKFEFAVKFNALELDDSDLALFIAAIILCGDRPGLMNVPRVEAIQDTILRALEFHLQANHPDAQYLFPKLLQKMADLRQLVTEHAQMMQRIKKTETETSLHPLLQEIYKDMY
Sequence of UniProt P37231 (P37231 whole entry, looked up): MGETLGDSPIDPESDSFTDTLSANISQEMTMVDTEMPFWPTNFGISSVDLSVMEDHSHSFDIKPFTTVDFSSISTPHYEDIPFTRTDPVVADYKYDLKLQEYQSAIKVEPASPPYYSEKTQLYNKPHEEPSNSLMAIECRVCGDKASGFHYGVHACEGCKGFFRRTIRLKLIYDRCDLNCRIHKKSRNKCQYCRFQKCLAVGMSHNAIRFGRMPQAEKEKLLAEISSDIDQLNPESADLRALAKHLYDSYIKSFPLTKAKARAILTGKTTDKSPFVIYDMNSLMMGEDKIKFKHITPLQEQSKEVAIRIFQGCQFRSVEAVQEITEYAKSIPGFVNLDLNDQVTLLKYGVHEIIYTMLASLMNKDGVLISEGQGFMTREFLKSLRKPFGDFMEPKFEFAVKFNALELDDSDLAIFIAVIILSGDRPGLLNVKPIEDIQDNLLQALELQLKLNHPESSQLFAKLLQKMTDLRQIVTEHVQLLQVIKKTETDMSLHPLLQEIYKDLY
Sequence of UniProt Q96RI1 (Q96RI1 whole entry, looked up): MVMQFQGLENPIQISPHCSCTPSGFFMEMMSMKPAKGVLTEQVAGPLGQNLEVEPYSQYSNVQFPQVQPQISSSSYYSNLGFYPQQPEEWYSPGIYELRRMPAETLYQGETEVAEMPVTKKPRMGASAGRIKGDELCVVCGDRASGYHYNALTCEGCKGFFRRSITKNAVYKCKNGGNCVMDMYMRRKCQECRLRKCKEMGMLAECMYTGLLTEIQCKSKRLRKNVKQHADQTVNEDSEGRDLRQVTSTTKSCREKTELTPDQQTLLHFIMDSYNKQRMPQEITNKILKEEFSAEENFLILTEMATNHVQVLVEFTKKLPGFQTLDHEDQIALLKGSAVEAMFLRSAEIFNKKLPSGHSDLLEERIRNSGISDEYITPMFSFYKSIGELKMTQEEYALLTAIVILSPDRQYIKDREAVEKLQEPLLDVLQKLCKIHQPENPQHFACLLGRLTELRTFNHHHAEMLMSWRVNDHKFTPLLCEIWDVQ

CCCCCCCCCCOCC(O)CN (stereo not given)
inactive: Potency [1]
inconclusive: Potency [2] 33.5 µM [cytotoxic, single point] | Potency [3] 33.5 µM [falling, single point] | Potency [4] 33.5 µM [cytotoxic, single point] | Potency [5] 33.5 µM [falling, single point] | Potency [6] 33.5 µM [single point] | ratio activity, negative = inhibition [8] -35.5% | Potency [9] 33.5 µM [cytotoxic] | Potency [11] 33.5 µM [single point] | Potency [12] 33.5 µM [falling, single point] | Potency [13] 33.5 µM [single point] | Potency [14] 26.8 µM [single point] | Potency [15] 33.5 µM [cytotoxic, single point] | Potency [16] 26.8 µM [cytotoxic, single point]
active: Potency [7] 29.8 µM | Potency [10] 33.5 µM

CCCOc1sc(C(=O)N2CCC(c3cc(CN)ccc3F)CC2)c(C)c1Br
active: Potency [2] 17.9 µM | Potency [7] 17.9 µM | Potency [10] 25.2 µM | Potency [12] 50.4 µM | Potency [15] 35.7 µM
inconclusive: Potency [1] 44.9 µM [cytotoxic, single point] | activation [3] -7.4% | Potency [5] 50.4 µM | Potency [6] 50.4 µM [falling, single point] | Potency [8] 20 µM | Potency [9] 56.5 µM [single point] | Potency [11] 56.5 µM [single point] | Potency [14] 44.9 µM [partial curve]

c1ccc(Nc2cccc3ccccc23)cc1
inconclusive: Potency [2] 44.2 µM [cytotoxic, partial curve, poor fit] | Potency [3] 78 µM [falling, partial curve, poor fit] | Potency [4] 69.5 µM [cytotoxic, single point] | Potency [5] 57.9 µM | Potency [17] 55.7 µM [cytotoxic, single point] | Potency [6] 27.5 µM [rising, partial curve, poor fit] | activation [6] 2.83% [at 81.1 µM] | Potency [10] 6.25 µM [rising, partial curve, poor fit] | Potency [14] 62.5 µM
inactive: Potency [7]
inactive and 54.9 µM (inconclusive): Potency [8]
49.6 µM (active) and inactive: Potency [1]

COc1cc(/C=C/C(=O)CC(=O)/C=C/c2ccc(O)c(OC)c2)ccc1O
active: Potency [2] 43.9 µM | Potency [17] 34.9 µM | Potency [10] 24.7 µM | Potency [12] 43.9 µM | Potency [16] 49.3 µM
inconclusive: Potency [1] 24.7 µM [fluorescent] | Potency [3] 30.8 µM [rising, full curve] | Potency [18] 24.7 µM [cytotoxic, partial curve] | Potency [6] 22 µM [partial curve] | Potency [7] 1.1 µM [cytotoxic, full curve, poor fit] | Potency [8] 24.7 µM [fluorescent, partial curve] | Potency [9] 49.3 µM [fluorescent, partial curve] | Potency [11] 49.3 µM [fluorescent, partial curve] | Potency [13] 43.9 µM [fluorescent, partial curve] | Potency [14] 43.9 µM [fluorescent, partial curve]

CCCCCCCCCCCCCCCCC(C(=O)O)C(O)(CC(=O)O)C(=O)O (stereo not given)
active: Potency [10] 18.8 µM | Potency [12] 23.7 µM
inconclusive: Potency [1] 33.5 µM [inhibitor, partial curve, poor fit] | Potency [2] 33.5 µM [cytotoxic, single point] | Potency [3] 18.8 µM [falling, partial curve] | Potency [5] 16.8 µM | ratio activity, negative = inhibition [8] -37.2% | Potency [9] 33.5 µM [cytotoxic] | Potency [11] 23.7 µM [falling, partial curve] | Potency [16] 10.7 µM [cytotoxic, full curve]

CCCCCCCCCCCC(=O)NCCCN(C)C
active: Potency [18] 49 µM | Potency [7] 38.9 µM | Potency [10] 34.7 µM | Potency [12] 49 µM | Potency [14] 27.5 µM | Potency [16] 38.9 µM
inconclusive: Potency [1] 61.6 µM [cytotoxic, single point] | Potency [2] 54.9 µM [cytotoxic, single point] | Potency [3] 68.6 µM [falling, single point] | Potency [6] 61.6 µM | ratio activity, negative = inhibition [8] -6.6% | Potency [9] 54.9 µM [cytotoxic] | Potency [11] 54.9 µM | activation [13] 1.61%
